Measurements taken from the RNAGym collection of RNA variant scans (doi:10.7554/elife.90254).
Read counts are not given, so values of variants with three or more changes are uncertain.

B1: LINE1-full (parent)
chain: UACGUAGGUGGUUUUCCCCUGAUAGUGCUAAGGGGGCCUGGAAGUUUGGACUGGGCAGAGCUCAACACAGCGUGGCAAAGUGGCUGUGGCUAGACUGCCUCUCUGGAUUCCUCGUCACUCAGCAGGGCAUCUCUGAGAGAAAUGCC

Variants of: B1
Assay: self-cleavage, relative activity (ratio to wild type); higher = more cleavage; in vitro, sequencing; the parent is a self-cleaving ribozyme

| Variant | self-cleavage |
| --- | --- |
| U29A A57G A79G U91C C133A | 1.02 |
| C28U A78U U108C | 1.5 |
| G27A A65C U134C | 0.02 |
| U29C A42G A77C U81A | 2.19 |
| U29C G40A A43G A57G A64U | 0.37 |
| U29C G70A A77G U112C | 0.24 |
| U26G A30G G33A U52A G126A | 1.49 |
| U29C C38U A77U | 0.98 |
| U26G G32A U39C U45C | 0.91 |
| C28U G40A U119A | 1.03 |
| U29C A64U A107G U108G | 1.53 |
| G27A A50G U62A A79U | 0 |
| U26G U45C U102C | 1.67 |
| U29C U46C U104C | 0.61 |
| U29C A30U U96A | 0.03 |
| G27A A69G U85A U119A A121G A129G | 0.22 |
| U26C U112C A121G A129G | 0 |
| U29C G72U A79G G97A | 0.06 |
| U29A U45C U73C | 1.53 |
| U29C G55C A57U A65G | 0 |
| G27A A42G A50G A138G | 0.28 |
| G27A A59G U143C | 0.06 |
| U29C A30U G34A A65U U143C | 0.25 |
| U26G A107G A117U A124G | 0.37 |

| Variant | self-cleavage |
| --- | --- |
| U29C U62C A78U C98U G106U U134A | 0.01 |
| C28A A30G U102C A124G | 2.3 |
| U29A A30G G53U | 1.5 |
| U29C C90U G122A | 0.11 |
| C28U A67G U143A | 0.2 |
| U29C U104A A142G | 1.32 |
| U29C A77G U85C | 0 |
| G27U U62C U85G | 0.29 |
| G27A U115A A129G U143A | 0.55 |
| G27A G75U U119C A124G A129G | 0.2 |
| U29C U45C U87C | 1.31 |
| C28G A69G U102C | 0 |
| U29C A57G A79G | 0.77 |
| U26C U112C A140G | 0.91 |
| C28G A77G U102C A121U | 1.15 |
| U29C U108A A141G | 1.53 |
| U29C A59G U85C | 0 |
| U29C G54A A67U U134A A138G | 0.08 |
| U26C U132C A141G | 0.71 |
| C28A A78G G106A U112C | 1.04 |
| U29A G49A A141G | 0 |
| G27A A57G A65G A78G U109A | 0 |
| U29C A31G C56U A77G U115A A138G | 0.48 |
| U26G G33U U39C C63U A77G U96C | 0.1 |

| Variant | self-cleavage |
| --- | --- |
| U29C U96C A117U | 0.11 |
| U29C A57G C84U | 0.05 |
| U29A A67U U132A U134C G137A | 0.2 |
| C28G C38U C71A U100C A107G U112C A136G | 0.76 |
| C28G C76U A136G | 1.92 |
| C28A A43C U62C A124G C146U | 0 |
| U29A A31U G122U | 1.01 |
| U26C U115C A140C | 1.69 |
| U29C U46C U85C U109A C110G A136U | 0.42 |
| U29C U52A A65C | 0.08 |
| U29C U52C A107G | 1.84 |
| U26G U96C U112A | 0.42 |
| C28U U96A U100C U109A C113U | 0.04 |
| C28U G35A U143A | 0.32 |
| U26G U39A G74A U115G | 0.9 |
| U26G U29A U132C | 1.4 |
| U29C U46A A69U A141G | 0.09 |
| U29C A94G U132A | 0.23 |
| U29C U108C C146U | 1.25 |
| U29C U46C C113G U130C | 1.84 |
| U29A G32A U134A | 1.16 |
| G27A U100C A140G | 2.38 |
| U29C A30G A117G | 0 |
| U29A A31U U47C A64G | 0 |

| Variant | self-cleavage |
| --- | --- |
| U29C A69U U112C | 0.13 |
| U29A U45G A69G | 0 |
| U29A A30G U47A A50G C146G | 1.12 |
| C28U U46C U100A U104C | 0.69 |
| C28U G41U U134C | 1.59 |
| U29A A59G U109A | 0.06 |
| U29G C51U A129U A136U | 1.67 |
| U29C G34U A141G A142G | 1.91 |
| U29G U45C C63U G83C A94C | 0.61 |
| G27A U45C U52C A67U | 0.07 |
| G27A A30U U45C U81C U112A | 0.92 |
| G27U A65G A142G U143A | 0.07 |
| U29A U109C A138G A142G | 1.49 |
| U29C A77U U85C G122A A140G | 0.12 |
| G27A A65G A138G | 0.07 |
| U26C U119A A142U | 0.32 |
| C28U U73A U91C U104C U143G | 0.94 |
| U29C U115A A141G | 1.52 |
| U26G C71U U87C U100C | 0.16 |
| U29C A50G G55C U85C | 0 |
| U26C U119A U143C | 1.91 |
| U29C G33A U85C U132A | 0.23 |
| U29C A30U U100A | 1.28 |
| U29C A43C A142U | 2.37 |

| Variant | self-cleavage |
| --- | --- |
| A30C A50G U104A | 0.55 |
| U26G A43G A138U | 1.47 |
| U29C A69G A136G | 0.97 |
| U26C U108C A140G | 1.34 |
| U29C A42G A77G | 2.3 |
| G27A A43U A94G C116U U132C | 0.17 |
| U29C U112C A121G | 1.97 |
| U29A G35A A117G | 1.61 |
| U29C A65G U85A | 0.09 |
| C28A A43G C63U A79G U81C A92G | 0.15 |
| U29C U62A A69G | 0 |
| U29C U47C G54U A117U | 1.28 |
| G27A U87C U115C A141G | 0.29 |
| U29C U52G G70A | 0.28 |
| U29C A50G U143C | 1.35 |
| U29A U62C C84U | 0.03 |
| C28G A42U A94G U115A A121G | 0.14 |
| U26G U47C G105A A117G U119C | 1.57 |
| G27A A57U U81A U130C | 0.09 |
| C28U U39A A92G | 0.08 |
| U29C A79G A136G | 1.06 |
| C28U A65G U134C | 0.06 |
| U29C U81A U119A | 2.11 |
| U29C A30C U119C A140G A142U | 1.02 |

| Variant | self-cleavage |
| --- | --- |
| U29C A43G A77C | 0.66 |
| C28U A107G A121U | 0.87 |
| C28U U85A A107U | 0.04 |
| C28U U62C U81A A121U A141G | 0.03 |
| U29C A57U A79U | 0.1 |
| C28G U46C U119C | 1.21 |
| U29C A31G U108C | 0 |
| U29A U96C A142G | 0.03 |
| G27A A43G U47C A121G | 2.6 |
| U29A U109C U130A | 1.67 |
| U29A A67U A136G | 0.18 |
| G27A A42U G44U U115C | 0.96 |
| C28G A59G A138U | 0.84 |
| G27A U104C A117U | 1.25 |
| U29C U85G U115C G125A A138G | 1.29 |
| C28U A65G U130C A142G | 0.06 |
| U29C A64U U91A | 0.15 |
| G27A A65G U91C | 0 |
| G27U A43G U62C U100C A124U | 0.34 |
| U29C A64G U73A U143C | 0.56 |
| U29C U85C U100C | 0 |
| U29C A67G A77G | 0 |
| U29C A117C A138G | 1.63 |
| U29C U39A A59G U96C | 0.18 |

| Variant | self-cleavage |
| --- | --- |
| U26G A94G C95A A142U | 0.14 |
| U29C G32A U52A | 0.92 |
| U29A G53C U130C | 1.3 |
| G27A A59G U102C G126A | 0 |
| C28U A59U U96A U130C | 0.05 |
| U29C U108C U134C | 0.77 |
| G27U U102A U134C A136G | 1 |
| A30C A31G A69G | 0 |
| U29C A67U U132C | 0.35 |
| U26G C76U A107G U143A | 2.47 |
| C28U A57G A142G | 0.59 |
| U29C A50G G54U G72A | 0.42 |
| U29C U100C A141G | 1.74 |
| U29C A30C U81A U102C | 1.7 |
| A30C A121G C123U | 1.35 |
| U29C G53A U62C | 0.12 |
| U29C A69U A140G | 0.05 |
| U29C A50U G60A A124C A138G A141C | 0.03 |
| U29C A50G C84G U91C | 0.38 |
| G27C A43G A64G U115A | 0.3 |
| U29C A57U A140G | 0.11 |
| U29A G54A U73C | 0.42 |
| U29C G41U U62C A64C U81C C103A | 0.04 |
